This is an account of results in article PMC6522912, “Evaluation of the published kinase inhibitor set to identify multiple inhibitors of bacterial ATP-dependent mur ligases” (Journal of Enzyme Inhibition and Medicinal Chemistry, 2019).

The structures appear in SMILES notation.

The first assay deals with E. coli MurC (Escherichia coli, UniProt P17952). The assay is described as follows: Malachite green inhibition assay, MurC. The class given is biochemical. The conditions noted are these: 0.25 h, Table S1, PKIS screening; read-out: RA [%] at 100 µM MurC. On the procedure:
(§1) Inhibition of the Mur ligases was determined using the malachite green assay, with slight modifications.
(§2) In all cases, the final concentration of DMSO was 5% (v/v). After incubation for 15 min at 37 °C, the enzyme reaction was terminated by addition of 100 µM Biomol green reagent, and the absorbance was measured at 650 nm after 5 min. All of the experiments were run in duplicate. Residual activities were calculated with respect to control assays without the tested compounds, but with the 5% DMSO carrier.
(§3) The published kinase inhibitor set compounds were evaluated for inhibition of MurC, D and F ligases from E. coli using the Malachite green assay, which detects orthophosphate generated during enzymatic reactions. To avoid non-specific inhibition due to aggregate formation, all of the compounds were tested in the presence of detergent (0.005% Triton-X114). The data are presented as the residual activities of these Mur ligases in the presence of 100 µM of each test compound (Supporting Information Table S1). […] Additionally, regarding the data of profiled compounds in large panels of human kinase assays[41]
Turning to `Fc1ccc(-c2ncn(C3CCNCC3)c2-c2ccnc(Oc3cccc(C(F)(F)F)c3)n2)cc1` [SB-253226], the remaining activity at 100 µM was determined as 42%.
Turning to `COc1ccccc1Oc1nccc(-c2c(-c3ccc(F)cc3)ncn2C2CCNCC2)n1` [SB-251527], the remaining activity at 100 µM was determined as 58%.
On to `O=C1NC(=O)C(c2ccccc2Cl)=C1Nc1cc(Cl)c(O)c(Cl)c1` [SB-390523], for which the remaining activity at 100 µM was found to be 100%.
Still for that read-out and setting: the same measure for `O=C1NC(=O)C(c2ccccc2)=C1Nc1ccccc1` [SKF-62604]: 61%.
Same read-out and setting: to `O=C1NC(=O)C(c2cccc([N+](=O)[O-])c2)=C1Nc1cc(Cl)c(O)c(Cl)c1` [SB-358518] belongs 65%; to `NC(=O)CCc1ccccc1Oc1nccc(-c2c(-c3ccc(F)cc3)ncn2C2CCNCC2)n1` [SB-264866], 74%.
For `Fc1ccc(Oc2nccc(-c3c(-c4ccc(F)cc4)ncn3C3CCNCC3)n2)cc1` [SB-242717], the remaining activity at 100 µM was 79%.
Same read-out and setting: to `COc1ccccc1C1=C(Nc2ccccc2)C(=O)NC1=O` [SB-376719] belongs 66%; to `CC(C)(C)c1ccc(Oc2nccc(-c3c(-c4ccc(F)cc4)ncn3C3CCNCC3)n2)cc1` [SB-278538], 75%.

The same assay, now with this note: 0.25 h, read-out: RA [%] at 100 µM MurC, Table S1, PKIS screening.
Consider `Fc1ccc(-c2ncn(C3CCNCC3)c2-c2ccnc(Oc3ccc(Cl)cc3)n2)cc1` [SB-278539], for which the remaining activity at 100 µM came out at 55%.
Still for that read-out and setting: to `CS(=O)(=O)c1ccc(Oc2nccc(-c3c(-c4ccc(F)cc4)ncn3C3CCNCC3)n2)cc1` [SB-254169] belongs 18%.

A further assay has as its target E. coli MurD (Escherichia coli, UniProt P14900). The assay is described as follows: biochemical. The conditions noted are these: 0.25 h, read-out: RA [%] at 100 µM MurD. On the procedure:
as §1, §2
The published kinase inhibitor set compounds were evaluated for inhibition of MurC, D and F ligases from E. coli using the Malachite green assay, which detects orthophosphate generated during enzymatic reactions. To avoid non-specific inhibition due to aggregate formation, all of the compounds were tested in the presence of detergent (0.005% Triton-X114). The data are presented as the residual activities of these Mur ligases in the presence of 100 µM of each test compound (Supporting Information Table S1).
On to `Fc1ccc(-c2ncn(C3CCNCC3)c2-c2ccnc(Oc3cccc(C(F)(F)F)c3)n2)cc1` [SB-253226], for which the remaining activity at 100 µM is 24%.
For the molecule `COc1ccccc1Oc1nccc(-c2c(-c3ccc(F)cc3)ncn2C2CCNCC2)n1` [SB-251527], the remaining activity at 100 µM worked out at 71%.
`O=C1NC(=O)C(c2ccccc2Cl)=C1Nc1cc(Cl)c(O)c(Cl)c1` [SB-390523]: the remaining activity at 100 µM stood at 92%.
As for `O=C1NC(=O)C(c2ccccc2)=C1Nc1ccccc1` [SKF-62604], the remaining activity at 100 µM came out at 86%.
Same read-out and setting: to `O=C1NC(=O)C(c2cccc([N+](=O)[O-])c2)=C1Nc1cc(Cl)c(O)c(Cl)c1` [SB-358518] belongs 79%; to `NC(=O)CCc1ccccc1Oc1nccc(-c2c(-c3ccc(F)cc3)ncn2C2CCNCC2)n1` [SB-264866], 83%.
Still for that read-out and setting: the same measure for `Fc1ccc(-c2ncn(C3CCNCC3)c2-c2ccnc(Oc3ccc(Cl)cc3)n2)cc1` [SB-278539]: 52%; for `Fc1ccc(Oc2nccc(-c3c(-c4ccc(F)cc4)ncn3C3CCNCC3)n2)cc1` [SB-242717]: 100%; for `CS(=O)(=O)c1ccc(Oc2nccc(-c3c(-c4ccc(F)cc4)ncn3C3CCNCC3)n2)cc1` [SB-254169]: 49%.
Still for that read-out and setting: the same measure for `COc1ccccc1C1=C(Nc2ccccc2)C(=O)NC1=O` [SB-376719]: 89%; for `CC(C)(C)c1ccc(Oc2nccc(-c3c(-c4ccc(F)cc4)ncn3C3CCNCC3)n2)cc1` [SB-278538]: 57%.

A further assay deals with E. coli MurF (Escherichia coli, UniProt P11880). The assay is described as follows: biochemical. The conditions noted are these: 0.25 h, read-out: RA [%] at 100 µM MurF. On the procedure: as §1, §2, §3
Regarding `Fc1ccc(-c2ncn(C3CCNCC3)c2-c2ccnc(Oc3cccc(C(F)(F)F)c3)n2)cc1` [SB-253226], the remaining activity at 100 µM amounted to 69%.
On to `COc1ccccc1Oc1nccc(-c2c(-c3ccc(F)cc3)ncn2C2CCNCC2)n1` [SB-251527], for which the remaining activity at 100 µM was 74%.
The same measure, in the same setting: the same measure for `O=C1NC(=O)C(c2ccccc2Cl)=C1Nc1cc(Cl)c(O)c(Cl)c1` [SB-390523]: 88%.
Still for that read-out and setting: to `O=C1NC(=O)C(c2ccccc2)=C1Nc1ccccc1` [SKF-62604] belongs 100%.
`O=C1NC(=O)C(c2cccc([N+](=O)[O-])c2)=C1Nc1cc(Cl)c(O)c(Cl)c1` [SB-358518]: the remaining activity at 100 µM came to 83%.
Still for that read-out and setting: the same measure for `NC(=O)CCc1ccccc1Oc1nccc(-c2c(-c3ccc(F)cc3)ncn2C2CCNCC2)n1` [SB-264866]: 84%; for `Fc1ccc(-c2ncn(C3CCNCC3)c2-c2ccnc(Oc3ccc(Cl)cc3)n2)cc1` [SB-278539]: 74%.
Still for that read-out and setting: the same measure for `Fc1ccc(Oc2nccc(-c3c(-c4ccc(F)cc4)ncn3C3CCNCC3)n2)cc1` [SB-242717]: 72%; for `CS(=O)(=O)c1ccc(Oc2nccc(-c3c(-c4ccc(F)cc4)ncn3C3CCNCC3)n2)cc1` [SB-254169]: 48%.
Turning to `COc1ccccc1C1=C(Nc2ccccc2)C(=O)NC1=O` [SB-376719], the remaining activity at 100 µM was 97%.
In the case of `CC(C)(C)c1ccc(Oc2nccc(-c3c(-c4ccc(F)cc4)ncn3C3CCNCC3)n2)cc1` [SB-278538], the remaining activity at 100 µM amounted to 73%.
